# B1: CAT191(scFv-Fc) (Fc fusion)
# chain: EVQLVESGGGVVQPGRSLRLSCAASGFTFSSYGMHWVRQAPGKELEWVAVISYDGSIKYYADSVKGRFTISRDNSKNTLYLQMNSLRAEDTAVYYCARTGEYSGYDTDPQYSWGQGTTVTVSSSGGGSGGGGSGGGGSEIVLTQSPSSLSASVGDRVTITCRSSQGIGDDLGWYQQKPGKAPILLIYGTSTLQSGVPSRFSGSGSGTDFTLTINSLQPEDFATYYCLQDSNYPLTFGGGTRLEIKGGS[… human IgG1 Fc …]
# notes: Dimer of two identical monomers: VH-linker-VL-GGSG-human IgG1 hinge-human IgG1 Fc; also called scFv-Fc dimer
# Columns and labels:
# [1] = biological target: T1, Human TGFβ1 (human, UniProt P01137 in part); test: SPR (Biacore), apparent KD, 24 RU TGFβ1 immobilized on the chip
# T1 construct: also called Transforming Growth Factor-β1
# [2] = biological target: T1, Human TGFβ1; test: SPR (Biacore), apparent KD, 105 RU TGFβ1 immobilized on the chip
# T1 sequence (P01137 279-390 limits assumed): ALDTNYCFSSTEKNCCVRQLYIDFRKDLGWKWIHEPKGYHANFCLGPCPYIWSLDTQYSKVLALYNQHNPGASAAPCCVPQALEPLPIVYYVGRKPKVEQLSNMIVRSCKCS
# [3] = biological target: T1, Human TGFβ1; test: SPR (Biacore), apparent KD, 544 RU TGFβ1 immobilized on the chip
binder,measurement,setting,value
B1,Kd,[1],0.5 nM
same,Kd,[2],0.2 nM
same,Kd,[3],0.09 nM
